# The supplement of paper PMC5499739
# Over roughly 16,000 sequences, “Z-score” has its median near -0.37; the highest 2% begin near 3.2. Some of the results follow.
# Tested on: RBM10 RRM1-ZnF (GST-tagged construct)
# Assay: RNAcompete 7-mer binding Z-score; higher = stronger binding preference
# How it was run: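 Bound RNA was identified by microarray hybridisation after GST-tagged RBM10 constructs (20 pmol) had been mixed with 1.5 nmol of a designed pool of 241 399 RNAs up to 41 nt, transcribed from microarray-derived DNA templates. Binding ran for 30 min at 4°C in 1 ml Hepes pH 7.8 buffer with KCl, NaCl, glycerol, DTT, BSA and glutathione Sepharose beads, with four 2-min washes at 4°C afterwards. For every heptamer motif, a one-sided Z-score for enrichment was computed across the probes that contained it.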
row,Sequence,RNAcompete 7-mer binding Z-score
1,AUCCGUU,-0.795
2,CUACGUC,-0.535
3,UAUAAAC,-0.493
4,ACGAUCU,-0.714
5,CGAUAUU,-0.613
6,UACUGGG,1.12
7,UACUUGG,0.0105
8,UCUAAGG,-0.00896
9,CGAGGAA,1.43
10,GUUGUUG,0.274
11,CAAUUGG,0.962
12,CUAAGGG,1.36
13,CCCCGAC,-0.0772
14,AGGUGCA,1.45
15,GAGUCAA,0.017
16,ACCGUUC,-0.948
17,UACGGGC,1.18
18,UGAGGCG,1.15
19,AUAACAU,-0.305
20,GAUGGAA,3.36
21,CGUGGGA,2.33
22,CAGUGUC,-0.594
23,AUAUGCC,-0.763
24,UGCGUCC,-0.542
25,UCUGCAA,-0.844

row,Sequence,RNAcompete 7-mer binding Z-score
1,UGGAUCU,0.0138
2,AGACAUU,-0.617
3,GGGUAUG,4.08
4,AGACACC,-0.889
5,UAGCCCU,-0.811
6,UAGCAUG,0.231
7,CCGAUCC,-0.772
8,GCGUCCU,-0.542
9,GCGAAGA,0.43
10,AGCUGGU,1.09
11,GACCAAC,-0.451
12,AACGGGU,3.03
13,AAACAUA,-0.428
14,AUGCAAA,-0.321
15,AACAUUG,-0.227
16,ACAAGUU,-0.558
17,GAUGCCA,-0.607
18,CCGAUCG,-0.441
19,ACGAAAC,-0.298
20,ACAGCAU,-0.652
21,CCCCCGC,-0.233
22,AAACCUC,-0.802
23,GAUCAUU,-0.685
24,GCUUUCG,-0.727
25,GGUAGCG,1.67

row,Sequence,RNAcompete 7-mer binding Z-score
1,CUGGUCG,0.222
2,AACAGAA,-0.0447
3,CCUGCAU,-0.776
4,AUGUAUU,-0.552
5,CGGGGGU,3.46
6,UAUUUCC,-0.974
7,CUGGAAC,-0.0155
8,GAUUCAA,-0.474
9,CCGGACG,-0.129
10,GACCGUC,-0.886
11,CGCAGGC,-0.0414
12,GUGAAGC,0.488
13,UCCCCCU,-0.487
14,CGCACGC,-0.503
15,UCCGUUG,-0.344
16,GGAAUAG,2.52
17,GAGGAUC,0.517
18,GAAUCUA,-0.379
19,CGUAAAC,-0.428
20,CUUAGAA,-0.529
21,GUAGUCU,-0.428
22,CUUGGGA,0.966
23,AAGCGUU,-0.366
24,CAUUAAG,-0.422
